# From the supplement of paper PMC10369915
# Some of the results follow. Rule as the data show it: active = 3.2 or more and inactive = the rest. Most of these values are background signal.
# How the values were obtained:
# Test in all cases: enrichment score (SH2-bound / input frequency) (ratio); bacterial display of known human phosphotyrosine sites (pTyr-Var adds point mutants) read by sequencing; higher = stronger binding; tyrosines were phosphorylated by kinases first
# Conditions in all cases: peptide library: Human pTyr
# [1] = target: SHP2 C-SH2 domain E139D
# [2] = target: SHP2 C-SH2 domain wild-type
# [3] = target: SHP2 N-SH2 domain L43F
# [4] = target: SHP2 N-SH2 domain T42A
# [5] = target: SHP2 N-SH2 domain T52S
# [6] = target: SHP2 N-SH2 domain wild-type
# 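Also: displayed peptides selected on beads carrying the immobilized SH2 domain, with library peptides lacking any tyrosine serving as negative controls.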
Binder,enrichment score [1],enrichment score [2],enrichment score [3],enrichment score [4],enrichment score [5],enrichment score [6]
KKKDEGSYTLEEPKQ [SDC3_HUMAN_419],inactive: 1.55,inactive: 1.13,inactive: 1.14,inactive: 1.07,inactive: 0.918,inactive: 1.44
IPHDGNLYPRLAPEL [SDCB1_HUMAN_46_YA],inactive: 0.566,inactive: 0.572,inactive: 0.548,inactive: 0.511,inactive: 0.561,inactive: 0.577
GGGGMSLYPSLEDLK [SDCBP_HUMAN_4],inactive: 0.695,inactive: 0.441,inactive: 0.747,inactive: 0.547,inactive: 0.585,inactive: 0.665
SLRADTSYFVEAFAL [SDHA_HUMAN_215_YA],inactive: 0.937,inactive: 0.953,inactive: 0.91,inactive: 1.04,inactive: 0.99,inactive: 1.11
EQAQKVRYEGSYALT [SDPR_HUMAN_395],inactive: 0.808,inactive: 0.796,inactive: 0.624,inactive: 0.7,inactive: 0.677,inactive: 0.649
INPETPGYVGFANLP [SEPT2_HUMAN_17],inactive: 0.731,inactive: 0.624,inactive: 0.772,inactive: 0.584,inactive: 0.645,inactive: 0.696
EEHNIKIYHLPDAES [SEPT2_HUMAN_211],inactive: 0.839,inactive: 0.998,inactive: 1.22,inactive: 0.872,inactive: 1.12,inactive: 1.04
FYFDENPYFENKVLS [SET_HUMAN_146],inactive: 0.981,inactive: 1.33,inactive: 1.12,inactive: 0.812,inactive: 1.04,inactive: 0.989
SPSPEPIYNSEGKRL [SF01_HUMAN_87],inactive: 0.669,inactive: 0.651,inactive: 0.642,inactive: 0.512,inactive: 0.644,inactive: 0.759
AGKQKLQYEGIFIKD [SF3A1_HUMAN_759],inactive: 1.3,inactive: 1.2,inactive: 1.32,inactive: 1.22,inactive: 1.2,inactive: 1.1
FPFEAEAYRNIEPVA [ATR_HUMAN_310_YA],inactive: 0.593,inactive: 0.633,inactive: 0.454,inactive: 0.51,inactive: 0.77,inactive: 0.603
GPGTPAGYGRGREEA [SFPQ_HUMAN_691_YA],inactive: 1.08,inactive: 1.08,inactive: 0.991,inactive: 0.888,inactive: 0.98,inactive: 0.928
ATQPEPIYAESTKRK [SG223_HUMAN_413],inactive: 0.915,inactive: 0.809,inactive: 1,inactive: 0.899,inactive: 0.985,inactive: 1.13
FVNSNSDYVDVLPGG [SH21B_HUMAN_127],inactive: 0.613,inactive: 0.718,inactive: 0.562,inactive: 0.681,inactive: 0.588,inactive: 0.546
DRLSQGAYGGLSDRP [SH2B1_HUMAN_439],inactive: 0.948,inactive: 0.571,inactive: 0.892,inactive: 0.514,inactive: 0.786,inactive: 0.536
ARAVENQYSFAGGGG [SH2B2_HUMAN_629_YA],inactive: 0.661,inactive: 0.635,inactive: 0.695,inactive: 0.577,inactive: 0.671,inactive: 0.545
KKDELSDYAEKSTGK [ATRX_HUMAN_1063],inactive: 1.07,inactive: 0.804,inactive: 0.85,inactive: 0.826,inactive: 0.985,inactive: 1.24
VVKAGESYTHIQYLF [SH2D3_HUMAN_278],inactive: 3.03,active: 4.84,inactive: 1.68,inactive: 1.69,inactive: 1.42,inactive: 2.27

Binder,enrichment score [1],enrichment score [2],enrichment score [3],enrichment score [4],enrichment score [5],enrichment score [6]
VVKAGESYTHIQALF [SH2D3_HUMAN_278_YA],inactive: 1.06,inactive: 1.1,inactive: 1.02,inactive: 0.949,inactive: 1.01,inactive: 1.1
ARIEEFVYEKLDRKA [SH3GLB1_HUMAN_80],inactive: 0.639,inactive: 0.473,inactive: 0.632,inactive: 0.685,inactive: 0.805,inactive: 0.702
DMSASAGYEEISDPD [SH3PXD2B_HUMAN_508],inactive: 1.41,inactive: 1.24,inactive: 1.04,inactive: 1.31,inactive: 1.34,inactive: 1.31
NLKKFMDYVQLHSTD [SHAN3_HUMAN_122],inactive: 1.1,inactive: 0.869,inactive: 1.08,inactive: 0.839,inactive: 0.875,inactive: 0.907
EPPDHQAYNDFPGKE [SHC1_HUMAN_350_YA],inactive: 0.653,inactive: 0.531,inactive: 0.664,inactive: 0.615,inactive: 0.717,inactive: 0.581
ELFDDPSYVNVQNLD [SHC1_HUMAN_427],inactive: 0.951,inactive: 0.751,inactive: 0.703,inactive: 0.907,inactive: 0.798,inactive: 0.939
EDSLEHNYYNSIPGK [SHC2_HUMAN_338],inactive: 0.731,inactive: 0.83,inactive: 0.648,inactive: 0.757,inactive: 0.708,inactive: 0.882
EDSLEHNYANSIPGK [SHC2_HUMAN_338_YA],inactive: 0.668,inactive: 0.565,inactive: 0.629,inactive: 0.62,inactive: 0.745,inactive: 0.543
DSLEHNYYNSIPGKE [SHC2_HUMAN_339],inactive: 0.813,inactive: 0.705,inactive: 0.829,inactive: 0.659,inactive: 0.836,inactive: 1.29
GDGSDHPYANSIPSK [SHC3_HUMAN_341_YA],inactive: 0.637,inactive: 0.592,inactive: 0.668,inactive: 0.534,inactive: 0.634,inactive: 0.672
SPVFEGVYNNSRMLH [ATX2L_HUMAN_118],inactive: 0.657,inactive: 0.532,inactive: 0.568,inactive: 0.515,inactive: 0.513,inactive: 0.475
DGSDHPAYNSIPSKM [SHC3_HUMAN_342_YA],inactive: 0.687,inactive: 0.522,inactive: 0.555,inactive: 0.505,inactive: 0.552,inactive: 0.663
EMFENPLYGSLSSFP [SHIP1_HUMAN_1022],inactive: 0.725,inactive: 0.552,inactive: 0.617,inactive: 0.569,inactive: 0.751,inactive: 0.579
FKFNEENYGVKTTYD [ATX2L_HUMAN_264],inactive: 0.688,inactive: 0.805,inactive: 0.714,inactive: 0.64,inactive: 0.747,inactive: 0.961
FKFNEENYGVKTTAD [ATX2L_HUMAN_264_YA],inactive: 0.7,inactive: 0.726,inactive: 0.707,inactive: 0.58,inactive: 0.774,inactive: 0.59
SACTMGAYHPLLAEK [SIAT1_HUMAN_369_YA],inactive: 1.22,inactive: 1.05,inactive: 1.24,inactive: 1.12,inactive: 1.4,inactive: 1.33
EAPSTTEYSEIKIHT [SIG11_HUMAN_668],inactive: 1.19,active: 3.26,inactive: 0.884,inactive: 0.969,inactive: 0.913,inactive: 1.14
GPGTPVKYSEVVLDS [SIT1_HUMAN_148],active: 11,active: 20,active: 8.12,active: 23.4,active: 5.65,inactive: 1.56
